# Measured values: the supplement of paper PMC4967469
# pIC50: −log10 of the molar value. The IC50 comes from the fitted curve, where viability falls to half of the control; a limit (>, <) means that the fit lies beyond the doses tested. The AUC spans the tested range (256-fold, ending at the top dose) of the same fit; it is 1 without any effect and falls as sensitivity rises. For some assays here: A top dose marked as inferred is not printed in the source and was worked back from the curve model.
# Columns and labels:
# Assay in all cases: Viability of human cancer cell lines after 72 h of drug (GDSC screen)
# CX-5461 = compound: Cc1cnc(CNC(=O)c2c(=O)c3ccc(N4CCCN(C)CC4)nc3n3c2sc2ccccc23)cn1 [CX-5461]; conditions: top dose 10.24 µM; top dose inferred
# Description: (§1)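 Human cancer cell lines in 384-well plates, medium with 10% serum, drug for 72 h over a 256-fold dose range (nine 2-fold or five 4-fold steps up to the top dose). Adherent lines were fixed and stained with the nucleic acid dye Syto60, suspension lines read with resazurin; signal relative to control wells, capped at 0 and 100%. One two-parameter sigmoid per drug and line, fitted in a mixed model over all curves with the slope shared within a line.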
# STF-62247 = compound: Cc1cccc(Nc2nc(-c3ccncc3)cs2)c1 [STF-62247]; conditions: top dose 10.24 µM; top dose inferred
# Description: as §1
# Obatoclax mesylate = compound: COC1=CC(c2cc3ccccc3[nH]2)=N/C1=C\c1[nH]c(C)cc1C [Obatoclax mesylate]; conditions: top dose 16 µM
# Description: as §1
# CP724714 = compound: COCC(=O)NC/C=C/c1ccc2ncnc(Nc3ccc(Oc4ccc(C)nc4)c(C)c3)c2c1 [CP724714]; conditions: top dose 10.24 µM; top dose inferred
# Description: as §1
Cell Line,AUC (CX-5461),pIC50 (CX-5461),AUC (STF-62247),pIC50 (STF-62247),AUC (Obatoclax mesylate),pIC50 (Obatoclax mesylate),AUC (CP724714),pIC50 (CP724714)
"22RV1 (prostate, adherent)",0.858,< 4.99,0.982,< 4.99,0.307,6.60,0.967,< 4.99
"42-MG-BA (glioma, adherent)",0.947,< 4.99,0.98,< 4.99,0.658,5.55,0.985,< 4.99
"201T (lung adenocarcinoma, adherent)",0.939,< 4.99,0.977,< 4.99,0.367,6.41,0.974,< 4.99
"451Lu (melanoma, adherent)",0.955,< 4.99,0.981,< 4.99,0.114,> 7.20,0.985,< 4.99
"639-V (bladder, adherent)",0.944,< 4.99,0.98,< 4.99,0.206,6.79,0.985,< 4.99
"647-V (bladder, adherent)",0.972,< 4.99,0.973,< 4.99,0.191,6.92,0.982,< 4.99
"769-P (kidney, adherent)",0.827,5.15,0.904,< 4.99,0.135,> 7.20,0.919,< 4.99
"786-0 (kidney, adherent)",0.714,5.61,0.89,4.99,0.025,> 7.20,0.965,< 4.99
"5637 (bladder, adherent)",0.93,< 4.99,0.983,< 4.99,0.142,7.05,0.981,< 4.99
"8305C (thyroid, adherent)",0.982,< 4.99,0.982,< 4.99,0.261,6.79,0.977,< 4.99
"8505C (thyroid, adherent)",0.898,< 4.99,0.977,< 4.99,0.091,> 7.20,0.984,< 4.99
"23132-87 (stomach, adherent)",0.719,5.56,0.983,< 4.99,0.473,6.08,0.985,< 4.99
"A172 (glioma, adherent)",0.913,< 4.99,0.986,< 4.99,0.493,6.02,0.977,< 4.99
"A204 (rhabdomyosarcoma, adherent)",0.654,5.71,0.958,< 4.99,0.42,6.25,0.974,< 4.99
"A375 (melanoma, adherent)",0.818,5.35,0.989,< 4.99,0.023,> 7.20,0.991,< 4.99
"A427 (non-small cell lung carcinoma, adherent)",0.908,< 4.99,0.955,< 4.99,0.172,7.00,0.979,< 4.99
"A431 (skin, adherent)",0.449,6.33,0.987,< 4.99,0.14,7.10,0.947,< 4.99
"A498 (kidney, adherent)",0.977,< 4.99,0.972,< 4.99,0.979,< 4.80,0.974,< 4.99
"A673 (rhabdomyosarcoma, adherent)",0.99,< 4.99,0.988,< 4.99,0.463,6.10,0.984,< 4.99
"A2058 (melanoma, adherent)",0.99,< 4.99,0.984,< 4.99,0.136,7.06,0.982,< 4.99
"A2780 (ovary, semi-adherent)",0.542,6.08,0.918,< 4.99,0.286,6.62,0.927,< 4.99
"ABC-1 (lung adenocarcinoma, adherent)",0.935,< 4.99,0.982,< 4.99,0.404,6.29,0.902,< 4.99
"ACHN (kidney, adherent)",0.907,< 4.99,0.962,< 4.99,0.209,6.92,0.944,< 4.99

Cell Line,AUC (CX-5461),pIC50 (CX-5461),AUC (STF-62247),pIC50 (STF-62247),AUC (Obatoclax mesylate),pIC50 (Obatoclax mesylate),AUC (CP724714),pIC50 (CP724714)
"AGS (stomach, adherent)",0.972,< 4.99,0.99,< 4.99,0.343,,0.981,< 4.99
"AN3-CA (endometrium, adherent)",0.985,< 4.99,0.985,< 4.99,0.247,6.76,0.982,< 4.99
"ASH-3 (thyroid, adherent)",0.988,< 4.99,0.988,< 4.99,0.297,6.57,0.985,< 4.99
"AU565 (breast, adherent)",0.984,< 4.99,0.98,< 4.99,0.367,6.39,0.759,5.40
"AsPC-1 (pancreas, adherent)",0.952,< 4.99,0.967,< 4.99,0.744,5.07,0.969,< 4.99
"BCPAP (thyroid, adherent)",0.955,< 4.99,0.987,< 4.99,0.102,> 7.20,0.988,< 4.99
"BEN (non-small cell lung carcinoma, adherent)",0.984,< 4.99,0.967,< 4.99,0.514,5.96,0.97,< 4.99
"BFTC-905 (bladder, adherent)",0.916,< 4.99,0.99,< 4.99,0.154,6.97,0.986,< 4.99
"BFTC-909 (kidney, adherent)",0.988,< 4.99,0.986,< 4.99,0.392,6.29,0.979,< 4.99
"BHT-101 (thyroid, adherent)",0.939,< 4.99,0.9,< 4.99,0.056,> 7.20,0.973,< 4.99
"BHY (head and neck, adherent)",0.778,5.38,0.979,< 4.99,0.033,> 7.20,0.97,< 4.99
"BICR10 (head and neck, adherent)",0.985,< 4.99,0.985,< 4.99,0.644,5.58,0.985,< 4.99
"BICR22 (head and neck, adherent)",0.981,< 4.99,0.982,< 4.99,0.546,5.87,0.97,< 4.99
"BICR31 (head and neck, adherent)",0.988,< 4.99,0.988,< 4.99,0.365,6.38,0.979,< 4.99
"BICR78 (head and neck, adherent)",0.966,< 4.99,0.983,< 4.99,0.443,6.17,0.971,< 4.99
"BPH-1 (prostate, adherent)",0.779,5.33,0.958,< 4.99,0.461,6.11,0.837,5.10
"BT-20 (breast, adherent)",0.979,< 4.99,0.982,< 4.99,0.679,5.44,0.976,< 4.99
"BT-474 (breast, adherent)",0.957,< 4.99,0.986,< 4.99,0.298,6.60,,
"BT-483 (breast, adherent)",0.891,< 4.99,0.977,< 4.99,0.641,5.46,0.921,< 4.99
"BxPC-3 (pancreas, adherent)",0.948,< 4.99,0.983,< 4.99,0.187,7.00,0.984,< 4.99
"C3A (liver, adherent)",0.988,< 4.99,0.987,< 4.99,0.267,6.68,0.988,< 4.99
"C32 (melanoma, adherent)",0.987,< 4.99,0.982,< 4.99,0.421,6.22,0.987,< 4.99
"C-4-I (cervix, adherent)",0.986,< 4.99,0.983,< 4.99,0.448,6.15,0.976,< 4.99

Cell Line,AUC (CX-5461),pIC50 (CX-5461),AUC (STF-62247),pIC50 (STF-62247),AUC (Obatoclax mesylate),pIC50 (Obatoclax mesylate),AUC (CP724714),pIC50 (CP724714)
"C-33-A (cervix, adherent)",0.786,5.35,0.946,< 4.99,0.044,> 7.20,0.924,< 4.99
"Caov-4 (ovary, adherent)",,,,,0.615,5.62,0.932,< 4.99
"H290 (mesothelioma, adherent)",,,,,0.175,6.93,0.989,< 4.99
"HCC202 (breast, adherent)",0.966,< 4.99,0.879,< 4.99,0.458,6.13,,
"JHU-029 (head and neck, adherent)",,,,,0.077,> 7.20,,
"KP-1N (pancreas, adherent)",,,,,0.203,6.90,,
"SCC90 (head and neck, adherent)",,,,,0.454,6.15,,
"SK-MG-1 (glioma, adherent)",0.934,< 4.99,0.984,< 4.99,,,0.944,< 4.99
"SNU-61 (large intestine, adherent)",0.918,< 4.99,0.983,< 4.99,,,0.922,< 4.99
"SNU-81 (large intestine, adherent)",0.786,5.21,0.978,< 4.99,,,0.948,< 4.99
"SNU-175 (large intestine, suspension)",0.963,< 4.99,0.987,< 4.99,,,0.873,5.05
"SNU-407 (large intestine, adherent)",0.789,5.27,0.916,< 4.99,,,0.922,< 4.99
"SNU-1040 (large intestine, adherent)",0.822,5.05,0.967,< 4.99,,,0.909,< 4.99
"SNU-C5 (large intestine, adherent)",0.964,< 4.99,0.981,< 4.99,,,0.974,< 4.99
"STS-0421 (soft tissue, adherent)",,,,,0.298,6.61,,
"SU-DHL-10 (B-cell lymphoma, suspension)",0.974,< 4.99,0.964,< 4.99,,,0.998,< 4.99
"SW1116 (large intestine, adherent)",0.986,< 4.99,0.985,< 4.99,,,0.985,< 4.99
"TE-4 (oesophagus, adherent)",0.987,< 4.99,0.98,< 4.99,,,0.53,6.11
"THP-1 (acute myeloid leukaemia, suspension)",,,0.863,5.13,0.138,7.06,0.876,5.08
"UWB1.289 (ovary, adherent)",0.978,< 4.99,0.949,< 4.99,,,0.97,< 4.99
"YH-13 (glioma, adherent)",0.986,< 4.99,0.986,< 4.99,,,0.986,< 4.99
"YMB-1-E (breast, adherent)",0.971,< 4.99,0.976,< 4.99,,,0.962,< 4.99
